Among all 44,000 compounds or so, fewer than 10 were called active. The inconclusive results got no clear call from the source; some entries with a clear call stand among them for comparison. Calls follow the shape of the dose curve; as a rule, active = well fitted activation curve with a large enough effect; inconclusive = small, poorly fitted or top-dose-only effect, or another doubt; inactive = no such curve, though single readings can be large or run the other way. Potencies of inconclusive entries are left out as doubtful fits.
What follows are molecules tested against Beta-2 adrenergic receptor (Homo sapiens) (UniProt P07550) (assay: qHTS assay of beta-arrestin-biased ligands of beta2-adrenergic receptor: NCGC Sytravon Library Screen). Details: HTLA Tango cells, beta-arrestin recruitment, luciferase luminescence, 18 h; series mostly up to 46.1 µM.
Chain of UniProt P07550 (P07550 whole entry, looked up, the tested form may be a part): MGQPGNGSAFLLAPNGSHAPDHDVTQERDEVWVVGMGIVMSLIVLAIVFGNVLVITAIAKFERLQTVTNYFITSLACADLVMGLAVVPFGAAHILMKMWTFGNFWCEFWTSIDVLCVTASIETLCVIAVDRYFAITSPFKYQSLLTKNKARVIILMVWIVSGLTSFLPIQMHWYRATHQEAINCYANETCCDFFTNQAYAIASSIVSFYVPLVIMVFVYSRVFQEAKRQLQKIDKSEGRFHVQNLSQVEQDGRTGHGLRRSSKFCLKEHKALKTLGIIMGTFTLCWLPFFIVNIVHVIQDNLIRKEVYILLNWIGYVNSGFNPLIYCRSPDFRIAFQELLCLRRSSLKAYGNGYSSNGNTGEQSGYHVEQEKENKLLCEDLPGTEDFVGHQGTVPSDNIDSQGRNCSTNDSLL
How it was run: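 First, Tango cells carrying beta2-AR and beta-arrestin fusions received compound up to 46 microM. After 18 hr at 37 degrees C, luciferase substrate was added for 15 minutes, then luminescence gave %Activity for curve fitting.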
With `COc1ccc(CCNC(=O)c2ccc(-n3c(C)cc4c3CCCC4)cc2)cc1OC` the Potency was inconclusive [activator, single point]. In the case of `O=C(CSc1nc2c([nH]c3ccccc32)c(=O)n1-c1ccccc1F)Nc1ccccc1C(F)(F)F`, the Potency is reported as inconclusive [activator, single point]. For `Cc1ccc(-n2c(SCC(=O)Nc3ccc4c(c3)OCO4)nc3c([nH]c4ccccc43)c2=O)cc1`, the Potency was inconclusive [activator, single point]. `CCCN(CCC)CCNC(=O)Cn1cc2c(n1)-c1c(oc(C(=O)N3CCCC3)c1C)CC2` was tested, and the Potency was active: 22.4 µM. With `Cc1cccc(NC(=O)c2sc3nc4c(cc3c2N)CN(Cc2ccccc2)CC4)c1` the Potency was “inactive”. In the case of `N#C/C(=C\c1ccc(-c2ccc(F)cc2F)o1)c1nc2ccccc2[nH]1`, the Potency is reported as “inactive”. For `COc1ccc(-c2nnc(SCC(=O)Nc3ccc(C(C)=O)cc3)nc2-c2ccc(OC)cc2)cc1`, the Potency was inconclusive [activator, single point]. `Cc1cc(C)c2c(n1)SCCN2C(=O)Nc1ccc(C(=O)Nc2cc(Cl)ccc2C)cc1` was tested, and the Potency was inconclusive [activator, partial curve, poor fit]. `CCc1ccc(NC(=O)c2ccc(F)c(S(=O)(=O)NCCc3ccc(OC)c(OC)c3)c2)cc1` was tested, and the Potency was inconclusive [activator, partial curve, poor fit]. With `CCc1nnc(SCc2nc(-c3ccccc3F)oc2C)c2cc3sccc3n12` the Potency was inconclusive [activator, single point]. `COc1ccc(-c2cc(C(F)(F)F)n3nc(-c4ccccc4)cc3n2)cc1OC` was tested, and the Potency was inconclusive [activator, single point]. In the case of `Cc1ccc(CNC(=O)c2cc(-c3ccc(Cl)cc3)on2)cc1`, the Potency is reported as inconclusive [activator, partial curve, poor fit]. With `Cc1oc(-c2ccccc2Cl)nc1CS(=O)(=O)CC(=O)NCc1ccc(F)cc1` the Potency was “inactive”. In the case of `CC1=C(C(=O)OC2CCCC2)C(c2c(Cl)cccc2Cl)CC(=O)N1` (stereo not given), the Potency is reported as “inactive”. With `COc1cccc(NC(=O)CSc2nc3c([nH]c4ccccc43)c(=O)n2-c2cc(C)cc(C)c2)c1` the Potency was inconclusive [activator, partial curve, poor fit]. With `COc1ccc(NC(=O)Cn2c(=O)n(Cc3ccccc3OC)c(=O)c3cccnc32)cc1Cl` the Potency was inconclusive [activator, partial curve, poor fit]. For `CCCCN(CCCC)CCCNC(=O)Cn1cc2c(n1)-c1c(oc(C(=O)N3CCCC3)c1C)CC2`, the Potency was inconclusive [activator, single point]. In the case of `CCOc1cccc(C(c2c(C)n(C)n(-c3ccccc3)c2=O)c2c(C)n(C)n(-c3ccccc3)c2=O)c1OC`, the Potency is reported as inconclusive [activator, single point]. `Cc1ccc2nc(-c3cc(NC(=O)/C=C/c4ccccc4)ccc3Cl)oc2c1` was tested, and the Potency was inconclusive [activator, single point]. `O=C(c1cc2c(s1)-c1ccccc1OC2)N1CCN(c2ccccc2F)CC1` was tested, and the Potency was inconclusive [activator, single point]. In the case of `CCCN1C(C(=O)c2ccccc2)=C(OC(=O)c2ccc(OC)cc2)c2ccccc2S1(=O)=O`, the Potency is reported as “inactive”. In the case of `COc1ccccc1C1Nc2c(sc3nc(C)cc(C)c23)C(=O)N1c1ccccc1` (stereo not given), the Potency is reported as inconclusive [activator, partial curve]. `O=C(C1CCCN(S(=O)(=O)c2ccc(Br)s2)C1)N1CCN(c2cccc(Cl)c2)CC1` (stereo not given) was tested, and the Potency was “inactive”. For `Cc1nn(C)c2c1c(C(F)(F)F)cc(=O)n2CC(=O)N1CCCCC1C` (stereo not given), the Potency was “inactive”. In the case of `CCOC(=O)c1c(C)sc(-c2c(-c3ccc4c(c3)OCCO4)[nH]c3c2c(=O)n(C)c(=O)n3C)c1O`, the Potency is reported as inconclusive [activator, partial curve].

— PubChem BioAssay AID1347077 (National Center for Advancing Translational Sciences (NCATS), 2019)
Potency is read from the fitted curve at half-maximal effect; tags tell the direction and shape of the fitted curve.
